Test results from the supplement of paper PMC8728848.
The sample as a whole holds a higher share of the strongest signals than the screen did.

What was measured:
Test in all cases: glycan array binding signal (z-score within array); higher = stronger binding
Conditions in all cases: glycan notation: IUPAC condensed, linker removed
[1] = system: Gal(b1-4)GlcNAc(b1-2)[Gal(b1-4)GlcNAc(b1-6)]Man(a1-6)[Gal(b1-4)GlcNAc(b1-2)Man(a1-3)]Man(b1-4)GlcNAc(b1-4)[Fuc(a1-6)]GlcNAc
Procedure, shortened: (§1)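 Glycan array data came from 3228 arrays in the Consortium for Functional Glycomics database, and only arrays with an available protein sequence were kept. Glycan names were put into IUPAC-condensed notation, and columns mapping to the same glycan were averaged. The binding signal is a within-array Z-score, averaged across arrays of one protein sequence run at different concentrations or buffers and across linkers. A negative Z-score can be read as non-binding.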

[2] = system: Gal(b1-4)GlcNAc(b1-2)[Gal(b1-4)GlcNAc(b1-6)]Man(a1-6)[GlcNAc(b1-4)][Gal(b1-4)GlcNAc(b1-2)[Gal(b1-4)GlcNAc(b1-4)]Man(a1-3)]Man(b1-4)GlcNAc(b1-4)[Fuc(a1-6)]GlcNAc
Procedure, shortened: as §1

[3] = system: Gal(b1-4)GlcNAc(b1-3)Gal(b1-4)GlcNAc(b1-2)[Gal(b1-4)GlcNAc(b1-3)Gal(b1-4)GlcNAc(b1-6)]Man(a1-6)[Gal(b1-4)GlcNAc(b1-3)Gal(b1-4)GlcNAc(b1-2)Man(a1-3)]Man(b1-4)GlcNAc(b1-4)[Fuc(a1-6)]GlcNAc
Procedure, shortened: as §1

[4] = system: Gal(b1-4)GlcNAc(b1-3)Gal(b1-4)GlcNAc(b1-3)Gal(b1-4)GlcNAc(b1-2)Man(a1-3)[Gal(b1-4)GlcNAc(b1-3)Gal(b1-4)GlcNAc(b1-3)Gal(b1-4)GlcNAc(b1-2)Man(a1-6)]Man(b1-4)GlcNAc(b1-4)[Fuc(a1-6)]GlcNAc
Procedure, shortened: as §1

[5] = system: Gal(b1-4)GlcNAc(b1-3)Gal(b1-4)GlcNAc(b1-3)Gal(b1-4)GlcNAc(b1-3)Gal(b1-4)GlcNAc(b1-2)Man(a1-3)[Gal(b1-4)GlcNAc(b1-3)Gal(b1-4)GlcNAc(b1-3)Gal(b1-4)GlcNAc(b1-3)Gal(b1-4)GlcNAc(b1-2)Man(a1-6)]Man(b1-4)GlcNAc(b1-4)GlcNAc
Procedure, shortened: as §1

[6] = system: Gal(b1-4)GlcNAc(b1-2)[Gal(b1-4)GlcNAc(b1-6)]Man(a1-6)[GlcNAc(b1-4)][Gal(b1-4)GlcNAc(b1-2)Man(a1-3)]Man(b1-4)GlcNAc(b1-4)GlcNAc
Procedure, shortened: as §1

[7] = system: Gal(b1-4)GlcNAc(b1-3)Gal(b1-4)GlcNAc(b1-2)[Gal(b1-4)GlcNAc(b1-3)Gal(b1-4)GlcNAc(b1-6)]Man(a1-6)[Gal(b1-4)GlcNAc(b1-3)Gal(b1-4)GlcNAc(b1-2)Man(a1-3)]Man(b1-4)GlcNAc(b1-4)GlcNAc
Procedure, shortened: as §1

[8] = system: Gal(b1-4)GlcNAc(b1-3)Gal(b1-4)GlcNAc(b1-3)Gal(b1-4)GlcNAc(b1-2)Man(a1-3)[Gal(b1-4)GlcNAc(b1-3)Gal(b1-4)GlcNAc(b1-3)Gal(b1-4)GlcNAc(b1-2)Man(a1-6)]Man(b1-4)GlcNAc(b1-4)GlcNAc
Procedure, shortened: as §1

[9] = system: Gal(b1-4)GlcNAc(b1-3)Gal(b1-3)GlcNAc
Procedure, shortened: as §1

[10] = system: Gal(b1-4)GlcNAc(b1-3)Gal(b1-3)GalNAc
Procedure, shortened: as §1

With “Meso764 (Homo sapiens) (chain not printed)” the “glycan array binding signal (z-score)” value [1] was 1.8, the “glycan array binding signal (z-score)” value [2] was -0.128 and the “glycan array binding signal (z-score)” value [3] was 1.84.
With “Gal 3 (Homo sapiens) (chain not printed)” the “glycan array binding signal (z-score)” value [4] was 3.35 and the “glycan array binding signal (z-score)” value [5] was 3.83.
FGF2 (chain not printed) was tested, and the “glycan array binding signal (z-score)” value [6] was 0.058, the “glycan array binding signal (z-score)” value [7] was 2.51 and the “glycan array binding signal (z-score)” value [8] was 0.973. The “glycan array binding signal (z-score)” value [5] was -0.547.
In the case of “M-Ficolin G221F (Homo sapiens) (chain not printed)”, the “glycan array binding signal (z-score)” value [9] was -0.177.
With “Thrombomodulin Extracellular (Homo sapiens) (chain not printed)” the “glycan array binding signal (z-score)” value [1] was 6.14, the “glycan array binding signal (z-score)” value [2] was -0.229 and the “glycan array binding signal (z-score)” value [10] was -0.661. The “glycan array binding signal (z-score)” value [7] was 2.43.
